Laboratory results taken from PMC7483518, “Destabilizing single chain major histocompatibility complex class I protein for repurposed enterokinase proteolysis” (Scientific Reports, 2020).
“And” between values parts separate entries of the source, which are not always exact repeats. Equal entries are not always repeated.

Each sequence was assayed on HLA-A*11:01 single chain protein.
Assay type: biochemical, Human

Sequence | Adj. Volume (Int), 50 kDa band
SLLDYVREH [CS1017] | 25592050 Int and 26523910 Int
SLLDYVREHKDN [CS1050] | 8030240 Int and 7117786 Int
QLMPFGSLLDY [CS1032] | 28066532 Int and 32367720 Int
SLLDYVREHK [CS1027] | 26937450 Int and 31466240 Int
MQLMPFGCLLDY [TM1050] | 7701454 Int and 8605228 Int
FGSLLDYVREHK [CS1048] | 8156162 Int and 7302670 Int
GSLLDYVREHK [CS1037] | 12475082 Int and 11233532 Int
VAIKTSPKANK [EX1018, EGFR exon 19 deletion-derived peptide] | 8172344 Int and 10263666 Int
